Measurements taken from patent publication US10299477B2 (priority 2015, dated 2019).

How the values were obtained:
Assay type in all cases: in vivo
Botrytis cinerea = experiment: Test Example B: Gray mold on tomato; conditions: in vivo
Description: [Test Example B] Gray Mold on Tomato
Seeds of a test plant (tomato variety: Oogata Fukuju) were planted followed by cultivating until three to five first leaves (true leaves) appeared.

Alternaia brassicicola = experiment: Test Example C: Alternaria sooty spot on cabbage; conditions: in vivo
Description: [Test Example C] Alternaria Sooty Spot on Cabbage
Seeds of a test plant (cabbage variety: Shikidori) were planted followed by cultivating until the cotyledons extended.

[1] = system: Blumeria graminis f sp. hordei; experiment: Test Example D: Powdery mildew on barley; conditions: in vivo
Description: [Test Example D] Powdery Mildew on Barley
After the sprayed dilutions were dried, conidia of Blumeria graminis f sp. hordei were inoculated to the plants by shaking off.

Puccinia recondita = experiment: Test Example E: Brown rust on wheat; conditions: in vivo
Description: [Test Example E] Brown Rust on Wheat

Plasmopara viticola = experiment: Test Example G: Downy mildew on vine; conditions: 250 ppm, sprayed 2.5 ml/pot before inoculation; evaluated 7-10 days after inoculation
Description: [Test Example G] Downy Mildew on Vine
Seeds of a test plant (grape variety: Neomuscat) were planted followed by cultivating until three to four first leaves appeared. […] After the sprayed dilutions were dried, a zoosporangia suspension (1-2×10^4 zoosporangia/ml) of Plasmopara viticola was inoculated to the plants by spraying.

CCn1c(-c2c(F)cc(Cl)cc2F)c(-c2cc(F)ccc2Cl)cc(Br)c1=O [Compound 603]
Test B (control value class, gray mold on tomato) (Botrytis cinerea): L (L shows 50% or less of control values) | Test C (control value class, Alternaria sooty spot on cabbage) (Alternaia brassicicola): H (H shows more than 50% of control values) | Test D (control value class, powdery mildew on barley) [1]: H (H shows more than 50% of control values) | Test E (control value class, brown rust on wheat) (Puccinia recondita): H (H shows more than 50% of control values) | Test G (control value class, downy mildew on vine) (Plasmopara viticola): L (L shows 50% or less of control values)

Cn1c(-c2c(F)cc(Cl)cc2F)c(-c2cc(F)ccc2Cl)ccc1=O [Compound 604]
Test B (control value class, gray mold on tomato) (Botrytis cinerea): H (H shows more than 50% of control values) | Test C (control value class, Alternaria sooty spot on cabbage) (Alternaia brassicicola): H (H shows more than 50% of control values) | Test D (control value class, powdery mildew on barley) [1]: H (H shows more than 50% of control values) | Test E (control value class, brown rust on wheat) (Puccinia recondita): H (H shows more than 50% of control values) | Test G (control value class, downy mildew on vine) (Plasmopara viticola): L (L shows 50% or less of control values)

Cn1c(-c2c(F)cc(Cl)cc2F)c(-c2cc(F)ccc2Cl)cc(Cl)c1=O [Compound 605]
Test B (control value class, gray mold on tomato) (Botrytis cinerea): H (H shows more than 50% of control values) | Test C (control value class, Alternaria sooty spot on cabbage) (Alternaia brassicicola): H (H shows more than 50% of control values) | Test D (control value class, powdery mildew on barley) [1]: H (H shows more than 50% of control values) | Test E (control value class, brown rust on wheat) (Puccinia recondita): H (H shows more than 50% of control values) | Test G (control value class, downy mildew on vine) (Plasmopara viticola): L (L shows 50% or less of control values)

Cn1c(-c2c(F)cc(Cl)cc2F)c(-c2cc(F)ccc2Cl)cc(Br)c1=O [Compound 606]
Test B (control value class, gray mold on tomato) (Botrytis cinerea): H (H shows more than 50% of control values) | Test C (control value class, Alternaria sooty spot on cabbage) (Alternaia brassicicola): H (H shows more than 50% of control values) | Test D (control value class, powdery mildew on barley) [1]: H (H shows more than 50% of control values) | Test E (control value class, brown rust on wheat) (Puccinia recondita): H (H shows more than 50% of control values) | Test G (control value class, downy mildew on vine) (Plasmopara viticola): L (L shows 50% or less of control values)

O=c1ccc(-c2cc(F)cc(F)c2Cl)c(-c2c(F)cc(F)cc2F)n1CC(F)F [Compound 607]
Test B (control value class, gray mold on tomato) (Botrytis cinerea): H (H shows more than 50% of control values) | Test C (control value class, Alternaria sooty spot on cabbage) (Alternaia brassicicola): H (H shows more than 50% of control values) | Test D (control value class, powdery mildew on barley) [1]: H (H shows more than 50% of control values) | Test E (control value class, brown rust on wheat) (Puccinia recondita): H (H shows more than 50% of control values) | Test G (control value class, downy mildew on vine) (Plasmopara viticola): L (L shows 50% or less of control values)

O=c1c(Cl)cc(-c2cc(F)cc(F)c2Cl)c(-c2c(F)cc(F)cc2F)n1CC(F)F [Compound 608]
Test B (control value class, gray mold on tomato) (Botrytis cinerea): H (H shows more than 50% of control values) | Test C (control value class, Alternaria sooty spot on cabbage) (Alternaia brassicicola): H (H shows more than 50% of control values) | Test D (control value class, powdery mildew on barley) [1]: H (H shows more than 50% of control values) | Test E (control value class, brown rust on wheat) (Puccinia recondita): H (H shows more than 50% of control values) | Test G (control value class, downy mildew on vine) (Plasmopara viticola): L (L shows 50% or less of control values)

CCn1c(-c2c(F)cc(F)cc2F)c(-c2cccc(F)c2F)cc(C)c1=O [Compound 609]
Test B (control value class, gray mold on tomato) (Botrytis cinerea): H (H shows more than 50% of control values) | Test C (control value class, Alternaria sooty spot on cabbage) (Alternaia brassicicola): H (H shows more than 50% of control values) | Test D (control value class, powdery mildew on barley) [1]: H (H shows more than 50% of control values) | Test E (control value class, brown rust on wheat) (Puccinia recondita): H (H shows more than 50% of control values) | Test G (control value class, downy mildew on vine) (Plasmopara viticola): L (L shows 50% or less of control values)

CCn1c(-c2c(F)cc(OC)cc2F)c(-c2cccc(F)c2F)cc(C)c1=O [Compound 610]
Test B (control value class, gray mold on tomato) (Botrytis cinerea): H (H shows more than 50% of control values) | Test C (control value class, Alternaria sooty spot on cabbage) (Alternaia brassicicola): H (H shows more than 50% of control values) | Test D (control value class, powdery mildew on barley) [1]: H (H shows more than 50% of control values) | Test E (control value class, brown rust on wheat) (Puccinia recondita): H (H shows more than 50% of control values) | Test G (control value class, downy mildew on vine) (Plasmopara viticola): L (L shows 50% or less of control values)

CCOc1cc(F)c(-c2c(-c3ccc(F)cc3Cl)ccc(=O)n2C)c(F)c1 [Compound 612]
Test B (control value class, gray mold on tomato) (Botrytis cinerea): H (H shows more than 50% of control values) | Test C (control value class, Alternaria sooty spot on cabbage) (Alternaia brassicicola): H (H shows more than 50% of control values) | Test D (control value class, powdery mildew on barley) [1]: H (H shows more than 50% of control values) | Test E (control value class, brown rust on wheat) (Puccinia recondita): H (H shows more than 50% of control values) | Test G (control value class, downy mildew on vine) (Plasmopara viticola): L (L shows 50% or less of control values)

Cc1cc(-c2ccc(F)cc2Cl)c(-c2c(F)cc(F)cc2F)n(C)c1=O [Compound 613]
Test B (control value class, gray mold on tomato) (Botrytis cinerea): H (H shows more than 50% of control values) | Test C (control value class, Alternaria sooty spot on cabbage) (Alternaia brassicicola): H (H shows more than 50% of control values) | Test D (control value class, powdery mildew on barley) [1]: H (H shows more than 50% of control values) | Test E (control value class, brown rust on wheat) (Puccinia recondita): H (H shows more than 50% of control values) | Test G (control value class, downy mildew on vine) (Plasmopara viticola): L (L shows 50% or less of control values)

CCN1C(=O)CCC(c2cc(OC)cc(F)c2Cl)=C1c1c(F)cc(F)cc1F [Compound 614]
Test B (control value class, gray mold on tomato) (Botrytis cinerea): H (H shows more than 50% of control values) | Test C (control value class, Alternaria sooty spot on cabbage) (Alternaia brassicicola): H (H shows more than 50% of control values) | Test D (control value class, powdery mildew on barley) [1]: H (H shows more than 50% of control values) | Test E (control value class, brown rust on wheat) (Puccinia recondita): H (H shows more than 50% of control values) | Test G (control value class, downy mildew on vine) (Plasmopara viticola): L (L shows 50% or less of control values)

CCn1c(-c2c(F)cc(F)cc2F)c(-c2cc(OC)cc(F)c2Cl)ccc1=O [Compound 615]
Test B (control value class, gray mold on tomato) (Botrytis cinerea): H (H shows more than 50% of control values) | Test C (control value class, Alternaria sooty spot on cabbage) (Alternaia brassicicola): H (H shows more than 50% of control values) | Test D (control value class, powdery mildew on barley) [1]: H (H shows more than 50% of control values) | Test E (control value class, brown rust on wheat) (Puccinia recondita): H (H shows more than 50% of control values) | Test G (control value class, downy mildew on vine) (Plasmopara viticola): L (L shows 50% or less of control values)

CCn1c(-c2c(F)cc(F)cc2F)c(-c2cc(OC)cc(F)c2Cl)cc(Cl)c1=O [Compound 617]
Test B (control value class, gray mold on tomato) (Botrytis cinerea): H (H shows more than 50% of control values) | Test C (control value class, Alternaria sooty spot on cabbage) (Alternaia brassicicola): H (H shows more than 50% of control values) | Test D (control value class, powdery mildew on barley) [1]: H (H shows more than 50% of control values) | Test E (control value class, brown rust on wheat) (Puccinia recondita): H (H shows more than 50% of control values) | Test G (control value class, downy mildew on vine) (Plasmopara viticola): L (L shows 50% or less of control values)

CCn1c(-c2c(F)cc(F)cc2F)c(-c2cccc(OC)c2Cl)ccc1=O [Compound 618]
Test B (control value class, gray mold on tomato) (Botrytis cinerea): H (H shows more than 50% of control values) | Test C (control value class, Alternaria sooty spot on cabbage) (Alternaia brassicicola): H (H shows more than 50% of control values) | Test D (control value class, powdery mildew on barley) [1]: H (H shows more than 50% of control values) | Test E (control value class, brown rust on wheat) (Puccinia recondita): H (H shows more than 50% of control values) | Test G (control value class, downy mildew on vine) (Plasmopara viticola): H (H shows more than 50% of control values)
